Results on 81 molecules are retold here after ChEMBL document CHEMBL4888484, “Replenishing the malaria drug discovery pipeline: Screening and hit evaluation of the MMV Hit Generation Library 1 (HGL1) against asexual blood stage Plasmodium falciparum ,using a nano luciferase reporter read-out” (2022).

Among all 150,000 compounds or so, about 540 (0.36%) showed an effect of 50% or more. Some of the results follow. Where a SMILES comes first, the peptide text is derived from it. The star is where a group is joined. Cbz = O=C(OCc1ccccc1)*

In this assay the test system is Plasmodium falciparum. The assay is described as follows: Primary screen in NF54 nanoGlo assay, in single point, at 2uM, 72h; a lower Z score goes with more inhibition. The conditions noted are these: timepoint 72 hour. It counts as functional, Erythrocyte.
As for `Cc1cc(C)c(Cc2noc(C[C@H](C)n3ccnc3)n2)c(C)c1`, the “% Inhibition” value is on record as -20% and the Z score was 2.65.
The corresponding values for `O=C(NCc1nc(C(F)(F)F)no1)N1CCC(c2ccon2)CC1` are -18% and 2.35.
For `CC(C)c1nn(C)c(N(C)C)c1CN[C@H](c1nccn1C)C(C)C`, in that order: 34% and -3.86.
The corresponding values for `Cc1nc(CNC(=O)c2ccccc2OC(C)C)c2n1CCCC2` are -5% and 0.61.
On to `Cc1nc([C@H](C)NC(=O)N2CCC3(C=Cc4ccccc4O3)CC2)cs1`, for which the “% Inhibition” value is listed as 15% and the Z score is -1.91.
For `CCC(=O)Nc1ccc(C)c(NC(=O)N2CCc3ccccc3C(C)(C)C2)c1`, in that order: 15% and -1.69.
For `COCC(C)(C)c1noc(-c2cccc3nn[nH]c23)n1`, in that order: -2% and 0.35.
For `CC1CCC(N(C(=O)CN2CC[C@@](O)(C(F)(F)F)C2)C2CC2)CC1` (some centres not stated), in that order: -13% and 2.
Turning to `CCC(C)C(NC(=O)C(C)NC(=O)CNC(=O)OCc1ccccc1)C(N)=O` (stereo not drawn) (Cbz-Gly-Ala-Ile-NH2; configuration not given here), the “% Inhibition” value was -4% and the Z score was 0.71.
As to `Cn1cc(C2(c3cn(C)c4ccccc34)CCN(C(=O)[C@H]3CC(=O)N(c4ccc(F)cc4)C3)CC2)c2ccccc21`, the “% Inhibition” value was -8% and the Z score is 1.38.
The corresponding values for `CO[C@H]1C[C@@H](O)C12CCN(C(=O)c1cc(-c3cccs3)n(C)n1)CC2` are 2% and -0.33.
The corresponding values for `Cc1cccc(Cn2ncnc2CCc2cn[nH]c2)c1` are -3% and 0.47.
The corresponding values for `CN(Cc1ccn(-c2ccccc2)n1)C[C@H](O)Cn1cccn1` are -3% and 0.49.
Consider `O=C(c1ccc2nnnn2c1)N1CC[C@@]2(CCCN(CC3CCC3)C2=O)C1`, for which the “% Inhibition” value is -8% and the Z score is recorded as 1.58.
Take `CN1C(=O)c2cc(NC(=O)c3cccc(S(=O)(=O)N(C)C)c3)ccc2Oc2ncccc21`: the “% Inhibition” value was 8% and the Z score is -1.04.
For `N#Cc1ccc(S(=O)(=O)N2CC(O)CC2C2CCCCC2)cc1` (configuration not stated), in that order: -4% and 0.51.
The corresponding values for `Cc1ccc(-c2cccc(C(=O)NCC3(CN4CCN(C)CC4)CC3)c2)cn1` are -9% and 1.27.
The corresponding values for `Cc1ccccc1CN1CC[C@H](CNC(=O)Cc2c(F)cccc2Cl)C1` are 2% and -0.35.
In the case of `COc1cc(CS(=O)(=O)N2CCN3C[C@@H](F)C[C@H]3C2)sn1`, the “% Inhibition” value is -18% and the Z score is listed as 1.93.
The corresponding values for `Cc1ccc(C(=O)N/C(=N/c2cc(Cl)ccc2C)NCc2ccccn2)cc1C` are -2% and 0.16.
The corresponding values for `C[C@]1(c2ccc(Br)cc2)Nc2ccccc2-c2nnnn21` are 0% and -0.06.
As for `Cc1oc(-c2ccccc2)nc1Cn1nc2ccccn2c1=O`, the “% Inhibition” value is reported as -6% and the Z score came out at 0.83.
The corresponding values for `CC(C)COc1ccc(C(=O)Nc2cccnc2-n2cccn2)cn1` are -6% and 1.09.
For `CC(=O)NC1(c2noc(C3C4CCCCC43)n2)CCCCC1` (configuration not stated), in that order: 2% and -0.2.
For the molecule `CCN(CC)C(=O)CCN[C@@H](C(C)C)C1CCCCC1`, the “% Inhibition” value is given as -1% and the Z score came to 0.1.
For `O=C(COC(=O)CCc1ccccc1)NCc1ccc2c(c1)OCO2`, in that order: -13% and 1.69.
The corresponding values for `O=C(O)C1C2CCC(CC2)C1C(=O)NCc1ccco1` (configuration not stated) are -9% and 1.84.
For `Cc1cccc(C(=O)N(CCN(C(=O)c2cccc(C)c2)c2ccccc2)c2ccccc2)c1`, in that order: -6% and 0.94.
For the molecule `O=C(NCC1(O)CCCCC1)[C@H]1CCN(Cc2ccccc2)C1`, the “% Inhibition” value is reported as -7% and the Z score is 0.76.
For `CCCN1CCC(NC(=O)CC(C)C)CC1`, in that order: -8% and 0.88.
For `O=C(CCN(c1nc(-c2cccc(Br)c2)nc2ccccc12)C1CC1)Nc1ccc(F)cc1`, in that order: -2% and 0.29.
Take `Cc1oncc1CNC(=O)c1ccc(OC(F)F)cn1`: the “% Inhibition” value is listed as -7% and the Z score worked out at 1.35.
As to `O=C1CCC2(CCN(S(=O)(=O)Cc3ccccc3)CC2)N1Cc1ccc(F)cc1`, the “% Inhibition” value is on record as -9% and the Z score is on record as 1.31.
For `Cc1cnc([C@H](C)NC(=O)NC2CCC(c3ccc(F)cc3)CC2)s1` (some centres not stated), in that order: -4% and 0.51.
For `Cc1c[nH]nc1C(=O)Nc1cnn(C)c1`, in that order: -16% and 1.58.
For `CCCc1nc2ncnn2c(O)c1NC(=O)Nc1cccc(C(F)(F)F)c1`, in that order: 1% and -0.24.
As to `O=C(Cc1ccc(-c2ccccc2)cc1)N1CC[C@@]2(CCCNC2=O)C1`, the “% Inhibition” value was -9% and the Z score stood at 1.69.
Take `O=C(Nc1ccc(CC(=O)N2CCOCC2)cc1)c1cc(Cl)ccc1Cl`: the “% Inhibition” value is reported as -20% and the Z score is recorded as 1.85.
The corresponding values for `CCC1(CC)CN(C(=O)c2cn(C)cn2)c2ccccc21` are -8% and 0.95.
For the molecule `c1ccc(OCCOCCN2CCC[C@H]2c2ccsc2)cc1`, the “% Inhibition” value was -2% and the Z score is 0.26.
In the case of `O=C(Nc1c(C(=O)Nc2ccc(F)c(F)c2)oc2ccccc12)c1cc2ccccc2o1`, the “% Inhibition” value is on record as -13% and the Z score is recorded as 2.46.
For `CO[C@H]1CCOC[C@@H]1NC(=O)NC(C1CCCC1)C(F)(F)F` (some centres not stated), in that order: -4% and 0.55.
For `COCc1noc(CN2C[C@@H]3CC[C@H]2CN(Cc2c(C)noc2C)C3)n1`, in that order: -3% and 0.53.
For `CC[C@H]1CCCN1C(=O)Nc1cc(C)nn1Cc1ccc(OC)c(OC)c1`, in that order: -18% and 2.04.
Regarding `Cc1ccc(NC(=O)N[C@@H]2CCCC[C@H]2NC(=O)OC(C)(C)C)c(C)c1`, the “% Inhibition” value is given as -10% and the Z score came to 1.56.
On to `CCOc1ccc2ncc(S(=O)(=O)c3ccc(Cl)cc3)c(N(CC)CC)c2c1`, for which the “% Inhibition” value is reported as -2% and the Z score is reported as 0.22.
The corresponding values for `Cc1nc(-c2c3n(c(=O)n(CC(=O)Nc4cccc(F)c4)c2=O)CCCC3)no1` are -3% and 0.56.
The corresponding values for `COCc1nc(CNc2ccc(-c3ccccc3)cn2)cs1` are -8% and 0.83.
For `Cc1cccc(CC(=O)N2CC[C@@H](NC(=O)c3cccnc3)[C@@H](CO)C2)c1`, in that order: -1% and 0.18.
`Cc1ccc(-c2csc(Cc3nc(-c4ccccc4C)no3)n2)cc1C`: the “% Inhibition” value amounted to 12% and the Z score is -1.17.
The corresponding values for `CN(CC[C@H]1CCS(=O)(=O)C1)Cc1cscn1` are -15% and 2.8.
As for `O=c1n(CCOc2ccc(F)cc2)nc2c(S(=O)(=O)N3CCCCCC3)cccn12`, the “% Inhibition” value came to 2% and the Z score was -0.29.
The corresponding values for `COc1ccccc1-c1nc2ccc(C)cn2c1NC(=O)c1ccco1` are 5% and -0.69.
For `CCCc1cnc(NC(=O)c2cnn(C)c2C)s1`, in that order: 31% and -0.68.
For `CN1CCOC(C(N)c2ccc(Cl)cc2)C1` (configuration not stated), in that order: 1% and -0.13.
On to `CCOc1ccc(-c2cc(C(=O)NC[C@@H](c3ccc(C)cc3)N3CCCC3)no2)cc1`, for which the “% Inhibition” value was 10% and the Z score is on record as -1.21.
For `CS(=O)(=O)N1C[C@H]2CC[C@@H](C1)N(C(=O)c1cccc(C(F)(F)F)c1)C2`, in that order: -2% and 0.29.
The corresponding values for `COc1ccc(-n2nc3nc(NCCN4CCOCC4)nc(-c4ccc(F)c(Cl)c4)c3c2N)cc1` are -13% and 1.41.
For `O=C(C1CCCCC1)N1C[C@H](c2nc(-c3ccccc3)no2)C2(CCOCC2)C1`, in that order: -1% and 0.19.
In the case of `NC(=O)[C@@H](c1ccccc1)N1CCN(C(=O)c2cc[nH]c2C2CC2)CC1`, the “% Inhibition” value was -13% and the Z score is reported as 2.45.
The corresponding values for `CC(C)CN1C(=O)C[C@H](Nc2ccc3c(c2)OCO3)C1=O` are -2% and 0.46.
As for `CC[C@](C)(CO)CNc1cccc(C)n1`, the “% Inhibition” value was -21% and the Z score is given as 3.07.
For `Cc1ccc(OCC(=O)N[C@@H](C)c2ccco2)cn1`, in that order: -15% and 1.35.
For `Cc1cc(CN(C)C(=O)[C@@H](Nc2ccc(C(F)(F)F)cc2Cl)C(C)C)no1`, in that order: -9% and 0.84.
For `Cc1cc(C(=O)N[C@H]2CCCNC2=O)c(O)cn1`, in that order: 3% and -0.55.
Regarding `O=C1NC(=O)[C@]2(CCOc3ccc(F)cc32)N1`, the “% Inhibition” value stood at 35% and the Z score is -4.46.
For `O=S1(=O)CCC[C@H](CS(=O)(=O)Cc2noc(C3CCCCC3)n2)C1`, in that order: -1% and 0.1.
The corresponding values for `Cc1nn(CC(=O)N[C@@H](C)C2=CCCCC2)c(=O)n1CCc1ccccc1` are 2% and -0.24.
For `CC(=O)NCC1=CCCN(CC(=O)N2CCc3ccccc32)C1`, in that order: -7% and 0.84.
On to `C[C@@H]1COCCN1C(=O)CCc1c[nH]cn1`, for which the “% Inhibition” value is -9% and the Z score amounted to 1.59.
The corresponding values for `CC1CCC(C(N)=O)CN1C(=O)c1cc(C2CC2)on1` (configuration not stated) are 8% and -1.01.
The corresponding values for `CCOc1cc(C(=O)N2CCO[C@H](c3ccco3)C2)on1` are -6% and 0.8.
For `COCCN(CC(=O)Nc1nc(-c2ccc(Cl)cc2)cn1-c1cc(OC)cc(OC)c1)C(=O)CC(C)C`, in that order: -6% and 1.12.
With `CC(C)Cc1nc(C(=O)N2CCOC[C@@H](C3CCC3)C2)cs1`, the “% Inhibition” value is reported as -3% and the Z score stood at 0.5.
The corresponding values for `Cn1cnc2c1CCN(C(=O)Cc1cc3ccccc3n1C)C21CCOCC1` are 1% and -0.15.
For `COc1ccc(NC(C)=O)cc1NC(=O)CC[C@@H](C)[C@H]1CC[C@H]2[C@@H]3[C@H](O)C[C@@H]4C[C@H](O)CC[C@]4(C)[C@H]3C[C@H](O)[C@]12C`, in that order: 24% and -3.94.
The corresponding values for `CCOc1ncccc1-c1nccc(OC)n1` are 0% and 0.03.
With `Cc1ccc(F)c(CNC(=O)c2cc(CCc3ccccc3)no2)c1F`, the “% Inhibition” value is -2% and the Z score was 0.4.
With `O=C1C[C@H](N2CCCCCC2)C(=O)N1c1ccc(Oc2ccccc2)cc1`, the “% Inhibition” value is recorded as -12% and the Z score came out at 1.53.
For `COCc1nc(CCc2ccncc2)n(C(C)(C)C)n1`, in that order: -8% and 1.16.
The corresponding values for `C[C@@H](COc1ccccc1)N1CCC(Oc2cccc(C(=O)N3CCCC3)c2)CC1` are 7% and -0.75.
